Measured values from PubChem BioAssay AID686979 (National Center for Advancing Translational Sciences (NCATS), 2013).
Among all 420,000 compounds or so, about 50,000 (12%) were called active. Inconclusive means that the source gave no clear call. Such entries were picked first, then a sample of the others. Calls follow the shape of the dose curve; as a rule, active = well fitted inhibition curve with a large enough effect; inconclusive = small, poorly fitted or top-dose-only effect; inactive = flat fitted curve, though single readings scatter. No potency is given beside an inconclusive call; the fits are too rough.

experiment: qHTS for Inhibitors of human tyrosyl-DNA phosphodiesterase 1 (TDP1): qHTS in cells in presence of CPT; settings: chicken DT40 Tdp1-/-;hTDP1 cells + 20 nM CPT, ATP luminescence, 48 h; series mostly up to 46.2 µM; also: nearly all actives have a fitted effect of over 55% in size
Method in brief: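 Cell growth measured by CellTiter-Glo luminescence after a minimum 48 h, 37 C compound exposure with 20 nM CPT in Tdp1-knockout DT40 cells stably expressing hTDP1, seeded 400/well; qHTS titration format.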
Potency is read from the fitted curve at half-maximal effect; tags tell the direction and shape of the fitted curve.

Compound	Potency
O=C(/C=C/c1c(F)cccc1Cl)Nc1cccnc1	inconclusive [inhibitor, single point]
O=C(CN1CCN(Cc2ccc(F)cc2Cl)C1=O)NCCc1ccccc1	inconclusive [inhibitor, single point]
COc1ccc(CNCCCC(=O)Nc2c(Cl)ccc(C)c2Cl)cc1OC	inconclusive [inhibitor, single point]
O=C(COc1ccc(Br)cc1)NNC(=O)Cc1ccc(S(=O)(=O)N2CCOCC2)s1	inactive
Cc1ccc(Cc2c(-c3ccccc3)nc3cc(C)c(Br)c(C)n23)cc1	inconclusive [inhibitor, partial curve]
COc1cc2c(cc1OC)C(=O)N1[C@H]3c4cc(Cl)ccc4OC[C@@H]3[C@H](c3ccccc3)[C@]1(C)C(=O)N2	active: 20.6 µM
N#CC1=C(N)Oc2cc(N)ccc2C1c1cccnc1 (stereo unspecified)	inconclusive [inhibitor, single point]
COc1ccc(C2/C=C\CN(S(=O)(=O)c3ccc(C)cc3)CC(=O)N2Cc2cccc(F)c2)cc1 (stereo unspecified)	active: 14.6 µM
N[C@@H](Cc1ccc(O)cc1)c1nnc([C@H](CO)NC(=O)C2CCNCC2)o1	inactive
Cc1ccc(-n2c(SCC(=O)N/N=C/c3ccccc3C(=O)O)nnc2-c2ccccc2)cc1	inactive
Cc1ccc(NS(=O)(=O)c2ccc3c(c2)CC(C)N3C(=O)C2CCC2)cc1Cl (stereo unspecified)	active: 16.4 µM
Cc1ccc(C2CC(c3ccc(C)cc3)n3nc(N)nc3N2)cc1 (stereo unspecified)	inconclusive [inhibitor, partial curve]
COc1cc2c(cc1OC)CN(C(=O)Nc1ccccc1Cl)CC2	inactive
COc1ccc2c3c(cccc13)C(=O)N(O)C2=O	active: 2.31 µM
COc1ccc(-c2nc3c(C)cc(Br)cn3c2Cc2ccccc2)cc1OC	active: 7.31 µM
Cc1[nH]nc2c1C(C(C)c1ccccc1)C(C#N)=C(N)O2 (stereo unspecified)	inconclusive [inhibitor, single point]
CC(C)(C)c1ccc(Cn2nnc3c(=O)[nH]c(C4CCCN(C(=O)c5cccs5)C4)nc32)cc1 (stereo unspecified)	active: 16.4 µM
COC(=O)c1ccc(NC(=O)c2snnc2-c2ccccc2)cc1	inconclusive [inhibitor, single point]
CCOCCCNC(=O)c1c[nH]c2ccc(S(=O)(=O)Nc3cccc(OC)c3)cc2c1=O	inconclusive [inhibitor, single point]
COc1cc(Cl)c(C)cc1NC(=O)c1cc2c(Cl)nc3ccc(C)cc3c2s1	inactive
CC1(Oc2cccc(C#N)c2)CCN(Cc2ccc(-c3ccccn3)cc2)C1 (stereo unspecified)	inconclusive [inhibitor, single point]
CC(=O)N1CCN(c2ccccc2NC(=O)COc2ccc(Br)cc2)CC1	inconclusive [inhibitor, single point]
c1ccc(COc2cccc(-c3cc4nc(NCCN5CCOCC5)ccn4n3)c2)cc1	active: 25.9 µM
Cc1noc(C)c1C(=O)N1CCCC(C(=O)c2cccc(OC(C)C)c2)C1 (stereo unspecified)	inconclusive [inhibitor, partial curve]

Compound	Potency
CN(C[C@H](Cc1ccccc1)N(C[C@H](Cc1cccc2ccccc12)N(CCc1ccccc1)N=O)N=O)N=O	inconclusive [inhibitor, single point]
CC(/C=C1\N=C(SCc2ccccc2)SC1=O)=C\c1ccccc1	inactive
CCn1c(SCC(=O)N2CCCCCC2)nc2ccccc2c1=O	active: 20.6 µM
COc1ccc(O)c(/C=N/NC(=O)c2ccc(CSc3nc(C)cc(C)n3)cc2)c1	active: 4.61 µM
COc1ccc(OC)c(NC(=O)CSc2ccc(-c3ccco3)nn2)c1	inconclusive [inhibitor, single point]
C[C@@H]1CN([C@@H](C)CO)S(=O)(=O)c2ccc(/C=C/c3ccccc3)cc2O[C@@H]1CN(C)Cc1ccc(C(=O)O)cc1	active: 16.4 µM
CC(C)CC1N=C2c3ccccc3N=C(SCC(=O)NCCc3ccc(Cl)cc3)N2C1=O (stereo unspecified)	inconclusive [inhibitor, single point]
CNC(=O)CN1C(=O)c2cccnc2Sc2ccccc21	inactive
COc1ccc(C(=O)O)cc1NC(=S)NC(=O)C(c1ccccc1)c1ccccc1	inactive
CCCc1cc(=O)n2c(nc3ccccc32)[nH]1	inconclusive [inhibitor, partial curve]
CCc1ccc(S(=O)(=O)NCc2csc(-c3ccccc3)n2)s1	inconclusive [inhibitor, single point]
CC(C)NC(=O)Nc1cccc2c1O[C@H](CN(C)C(=O)NC1CCCCC1)[C@@H](C)CN([C@H](C)CO)C2=O	inactive
COc1cc(S(=O)(=O)N2CCOCC2)ccc1NC(=O)COC(=O)CC12CC3CC(CC(C3)C1)C2	inconclusive [inhibitor, single point]
CCOc1cc(/C=C2/N=C(c3ccc(C(C)(C)C)cc3)OC2=O)cc(Cl)c1OS(C)(=O)=O	active: 18.4 µM
Cc1ccc(/C=C2\SC(=S)N(C3CCS(=O)(=O)C3)C2=O)cc1 (stereo unspecified)	inconclusive [inhibitor, single point]
COc1ccc(-n2c(=O)c3c4c(sc3n(Cc3ccccc3Cl)c2=O)CCC4)c(OC)c1	inconclusive [inhibitor, partial curve, poor fit]
CCCN(N=Nc1cccc([N+](=O)[O-])c1)c1cccc([N+](=O)[O-])c1	inconclusive [inhibitor, single point]
CCOc1ccc(CCNS(=O)(=O)c2cnc[nH]2)cc1OCC	inactive
COc1ccc(C(CC(=O)N2CCCCC2)c2c(O)cc(OC)cc2OC)cc1 (stereo unspecified)	inconclusive [inhibitor, single point]
O=C(NCC(=O)N1CCCCCCC1)c1ccco1	inactive
COC(=O)c1ccc(-c2ccc(/C=N/N3C(=O)C4C5C=CC(CC5)C4C3=O)o2)cc1 (stereo unspecified)	inactive
CCc1cc2cccc(C)c2nc1SCC(=O)Nc1cc(C)on1	inactive
CN(C(=O)c1sc2nc(N3CCOCC3)c3c(c2c1N)CCCC3)c1ccccc1	inconclusive [inhibitor, single point]
CCOC(=O)c1c(CSCc2ccccc2)oc2ccc(O)c(CN(C)C)c12	active: 14.6 µM

Compound	Potency
Cc1ccc(C(=O)N2CCCC(N3CCN(c4ccccc4F)CC3)C2)s1 (stereo unspecified)	inconclusive [inhibitor, single point]
O=C(NC1C2CC3CC(C2)CC1C3)c1ccc(N2CCNCC2)c([N+](=O)[O-])c1 (stereo unspecified)	inconclusive [inhibitor, single point]
COc1cccc(CNC(=O)CN(C)S(=O)(=O)c2ccc3[nH]c4c(c3c2)CCCC4)c1	inconclusive [inhibitor, single point]
COc1cc(O)c(C(CC(=O)N2CCCCC2)c2ccc(N(C)C)cc2)c(OC)c1 (stereo unspecified)	inactive
CC(=O)N(C)C[C@H]1Oc2cc(Br)ccc2S(=O)(=O)N([C@H](C)CO)C[C@@H]1C	inactive
CCn1cc(C(=O)N2CCCc3ccccc32)c2cc(OC)c(OC)cc2c1=O	inactive
CCC(C(=O)O)n1c2ccccc2c2cn[nH]c(=O)c21 (stereo unspecified)	inconclusive [inhibitor, single point]
O=C(CSc1ccc2c(c1)OCCO2)NC(=O)NC1CCCC1	inactive
O=C(CNS(=O)(=O)c1ccc([N+](=O)[O-])cc1)N/N=C/c1ccc(O)cc1O	inconclusive [inhibitor, single point]
FC(F)(F)c1cc(-c2ccco2)nc(-n2nnc3ccccc32)n1	inactive
COc1ccc(-c2cn(Cc3ccc4ccccc4c3)nn2)cc1	inconclusive [inhibitor, single point]
Cc1cc(C)cc(NC(=O)c2cccc(C(=O)Nc3cc(C)cc(C)c3)n2)c1	inconclusive [inhibitor, single point]
O=C(CCN1C(=O)CSc2ccccc21)Nc1ccc(OC(F)(F)F)cc1	inconclusive [inhibitor, single point]
COc1ccc(OC)c(C2=NO[C@@H]3C(=O)N(c4cc(Cl)ccc4OC)C(=O)[C@H]23)c1	inactive
CN(C)S(=O)(=O)N1CCN(CC(=O)Nc2cc(Cl)ccc2Cl)CC1	inconclusive [inhibitor, single point]
COc1cccc(-c2cc(C(F)(F)F)nc(NCCc3ccccc3)n2)c1	inconclusive [inhibitor, single point]
Cc1cccc(C)c1-n1ncc(C(=O)Nc2ccc3c(c2)OCO3)c1C1CCN(C(=O)OC(C)(C)C)CC1	inconclusive [inhibitor, single point]
O=[N+]([O-])c1ccc(-c2c(-c3ccccc3)ncc3cc(F)ccc23)cc1	active: 14.6 µM
Cc1ccc(CN2CCc3nc(N4CCN(c5ccccc5F)CC4)ncc3C2)cc1C	inactive
Nc1c(-c2ccc(C(F)(F)F)cc2)nc2ncccn12	inactive
CCCCOc1ccc(CN=C(N)N)cc1Cl	active: 2.31 µM
CCOc1ccccc1CNC(=O)C1CCCN(c2ncnc3onc(-c4ccc(F)cc4)c23)C1 (stereo unspecified)	inconclusive [inhibitor, single point]
O=C(c1ccc2c(c1)OCO2)N1CCN(c2cccc(C(F)(F)F)c2)CC1	active: 18.4 µM
